Target: isolated recombinant JAK1 kinase domain (Homo sapiens (Human), UniProt P23458)
Conditions: read-out: JAK1 Ki; isolated recombinant JAK1 kinase domain, 25 μM ATP

SMILES	Ki [nM]
O=C(c1ccc(Nc2nc3c(N4CCC(O)(c5ccc(Cl)cc5)CC4)cccn3n2)cc1)N1CCNCC1CO (centres unmarked) [Example 1-196, [4-[[8-[4-(4-chlorophenyl)-4-hydroxy-1-piperidyl]-[1,2,4]triazolo[1,5-a]pyridin-2-yl]amino]phenyl]-[2-(hydroxymethyl)piperazin-1-yl]methanone]	1.64
O=C(c1ccc(Nc2nc3c(N4CCC(O)(c5ccc(Cl)cc5)CC4)cccn3n2)cc1)N1CC2CNCC2C1 (centres unmarked) [Example 1-197, 2,3,3a,4,6,6a-hexahydro-1H-pyrrolo[3,4-c]pyrrol-5-yl-[4-[[8-[4-(4-chlorophenyl)-4-hydroxy-1-piperidyl]-[1,2,4]triazolo[1,5-a]pyridin-2-yl]amino]phenyl] methanone]	1.63
O=C(N[C@H]1CCCNC1)c1ccc(Nc2nc3c(N4CCC(O)(c5ccc(Cl)cc5)CC4)cccn3n2)cc1 [Example 1-198, 4-[[8-[4-(4-chlorophenyl)-4-hydroxy-1-piperidyl]-[1,2,4]triazolo[1,5-a]pyridin-2-yl]amino]-N-[(3S)-3-piperidyl]benzamide]	1.57
O=C(c1ccc(Nc2nc3c(N4CCC(O)(c5ccc(Cl)cc5)CC4)cccn3n2)cc1)N1CC2(CCNCC2)C1 [Example 1-199, [4-[[8-[4-(4-chlorophenyl)-4-hydroxy-1-piperidyl]-[1,2,4]triazolo[1,5-a]pyridin-2-yl]amino]phenyl]-(2,7-diazaspiro[3.5]nonan-2-yl)methanone]	0.66
CC1CN(C(=O)c2ccc(Nc3nc4c(N5CCC(O)(c6ccc(Cl)cc6)CC5)cccn4n3)cc2)CCN1 (centres unmarked) [Example 1-200, [4-[[8-[4-(4-chlorophenyl)-4-hydroxy-1-piperidyl]-[1,2,4]triazolo[1,5-a]pyridin-2-yl]amino]phenyl]-(3-methylpiperazin-1-yl)methanone]	3.6
O=C(c1ccc(Nc2nc3c(N4CCC(O)(c5ccc(Cl)cc5)CC4)cccn3n2)cc1)N1CCC2(CC1)CNC2 [Example 1-201, [4-[[8-[4-(4-chlorophenyl)-4-hydroxy-1-piperidyl]-[1,2,4]triazolo[1,5-a]pyridin-2-yl]amino]phenyl]-(2,7-diazaspiro[3.5]nonan-7-yl)methanone]	2.54
O=C(c1ccc(Nc2nc3c(N4CCC(O)(c5ccc(Cl)cc5)CC4)cccn3n2)cc1)N1CCCNCC1 [Example 1-204, [4-[[8-[4-(4-chlorophenyl)-4-hydroxy-1-piperidyl]-[1,2,4]triazolo[1,5-a]pyridin-2-yl]amino]phenyl]-(1,4-diazepan-1-yl)methanone]	4.08
O=C(c1ccc(Nc2nc3c(N4CCC(O)(c5ccc(Cl)cc5)CC4)cccn3n2)cc1)N1CCC2(CNC2)C1 [Example 1-205, [4-[[8-[4-(4-chlorophenyl)-4-hydroxy-1-piperidyl]-[1,2,4]triazolo[1,5-a]pyridin-2-yl]amino]phenyl]-(2,6-diazaspiro[3.4]octan-6-yl)methanone]	1.89
CNC1CCN(C(=O)c2ccc(Nc3nc4c(N5CCC(O)(c6ccc(Cl)cc6)CC5)cccn4n3)cc2)C1 (centres unmarked) [Example 1-206, [4-[[8-[4-(4-chlorophenyl)-4-hydroxy-1-piperidyl]-[1,2,4]triazolo[1,5-a]pyridin-2-yl]amino]phenyl]-[3-(methylamino)pyrrolidin-1-yl]methanone]	2.34
O=C(c1ccc(Nc2nc3c(N4CCC(O)(c5ccc(Cl)cc5)CC4)cccn3n2)cc1)N1CC2(CCCNC2)C1 [Example 1-210, [4-[[8-[4-(4-chlorophenyl)-4-hydroxy-1-piperidyl]-[1,2,4]triazolo[1,5-a]pyridin-2-yl]amino]phenyl]-(2,8-diazaspiro[3.5]nonan-2-yl)methanone]	0.91
O=C(c1ccc(Nc2nc3c(N4CCC(O)(c5ccc(Cl)cc5)CC4)cccn3n2)cc1)N1CCC2(CCCNC2)C1 (centres unmarked) [Example 1-212, [4-[[8-[4-(4-chlorophenyl)-4-hydroxy-1-piperidyl]-[1,2,4]triazolo[1,5-a]pyridin-2-yl]amino]phenyl]-(2,9-diazaspiro[4.5]decan-2-yl)methanone]	1.88

Second part, the compound after the results:

Ki [nM]	SMILES
3.52	CN(CCN)C(=O)c1ccc(Nc2nc3c(N4CCC(O)(c5ccc(Cl)cc5)CC4)cccn3n2)cc1 [Example 1-194, N-(2-aminoethyl)-4-[[8-[4-(4-chlorophenyl)-4-hydroxy-1-piperidyl]-[1,2,4]triazolo[1,5-a]pyridin-2-yl]amino]-N-methyl-benzamide]
3.74	NCC1CCCN1C(=O)c1ccc(Nc2nc3c(N4CCC(O)(c5ccc(Cl)cc5)CC4)cccn3n2)cc1 (centres unmarked) [Example 1-195, [2-(aminomethyl)pyrrolidin-1-yl]-[4-[[8-[4-(4-chlorophenyl)-4-hydroxy-1-piperidyl]-[1,2,4]triazolo[1,5-a]pyridin-2-yl]amino]phenyl] methanone]
3.35	CN(C(=O)c1ccc(Nc2nc3c(N4CCC(O)(c5ccc(Cl)cc5)CC4)cccn3n2)cc1)C1CCCNC1 (centres unmarked) [Example 1-202, 4-[[8-[4-(4-chlorophenyl)-4-hydroxy-1-piperidyl]-[1,2,4]triazolo[1,5-a]pyridin-2-yl]amino]-N-methyl-N-(3-piperidyl)benzamide]
1.48	O=C(c1ccc(Nc2nc3c(N4CCC(O)(c5ccc(Cl)cc5)CC4)cccn3n2)cc1)N1CC2(CNC2)C1 [Example 1-203, [4-[[8-[4-(4-chlorophenyl)-4-hydroxy-1-piperidyl]-[1,2,4]triazolo[1,5-a]pyridin-2-yl]amino]phenyl]-(2,6-diazaspiro[3.3]heptan-2-yl)methanone]
1.97	O=C(c1ccc(Nc2nc3c(N4CCC(O)(c5ccc(Cl)cc5)CC4)cccn3n2)cc1)N1CCC2(CCNC2)C1 (centres unmarked) [Example 1-207, [4-[[8-[4-(4-chlorophenyl)-4-hydroxy-1-piperidyl]-[1,2,4]triazolo[1,5-a]pyridin-2-yl]amino]phenyl]-(2,7-diazaspiro[4.4]nonan-2-yl)methanone]
5.63	O=C(c1ccc(Nc2nc3c(N4CCC(O)(c5ccc(Cl)cc5)CC4)cccn3n2)cc1)N1CCCC12CCNC2 (centres unmarked) [Example 1-209, [4-[[8-[4-(4-chlorophenyl)-4-hydroxy-1-piperidyl]-[1,2,4]triazolo[1,5-a]pyridin-2-yl]amino]phenyl]-(1,7-diazaspiro[4.4]nonan-1-yl)methanone]
2.19	O=C(c1ccc(Nc2nc3c(N4CCC(O)(c5ccc(Cl)cc5)CC4)cccn3n2)cc1)N1CCC2(CCCCN2)C1 (centres unmarked) [Example 1-211, [4-[[8-[4-(4-chlorophenyl)-4-hydroxy-1-piperidyl]-[1,2,4]triazolo[1,5-a]pyridin-2-yl]amino]phenyl]-(2,6-diazaspiro[4.5]decan-2-yl)methanone]
2.8	O=C(c1ccc(Nc2nc3c(N4CCC(O)(c5ccc(Cl)cc5)CC4)cccn3n2)cc1)N1CCC2(CCNC2)CC1 [Example 1-213, [4-[[8-[4-(4-chlorophenyl)-4-hydroxy-1-piperidyl]-[1,2,4]triazolo[1,5-a]pyridin-2-yl]amino]phenyl]-(2,8-diazaspiro[4.5]decan-8-yl)methanone]
2.53	O=C(c1ccc(Nc2nc3c(N4CCC(O)(c5ccc(Cl)cc5)CC4)cccn3n2)cc1)N1CCC2(CCNCC2)C1 [Example 1-214, [4-[[8-[4-(4-chlorophenyl)-4-hydroxy-1-piperidyl]-[1,2,4]triazolo[1,5-a]pyridin-2-yl]amino]phenyl]-(2,8-diazaspiro[4.5]decan-2-yl)methanone]

From patent US9873709B2 (priority 2013, dated 2018)
